Paper PMC7694937
These are yes or no findings as the source states them, for the method shown. In cells and extracts the contact can be indirect. Some entries that bind do so weakly or less than the wild type. For some assays here: Where a sequence is shown, tags or fusion partners need not be part of it.

Sequences of proteins named here, by UniProt entry; tags and fusion partners are left off.
UniProt P29466: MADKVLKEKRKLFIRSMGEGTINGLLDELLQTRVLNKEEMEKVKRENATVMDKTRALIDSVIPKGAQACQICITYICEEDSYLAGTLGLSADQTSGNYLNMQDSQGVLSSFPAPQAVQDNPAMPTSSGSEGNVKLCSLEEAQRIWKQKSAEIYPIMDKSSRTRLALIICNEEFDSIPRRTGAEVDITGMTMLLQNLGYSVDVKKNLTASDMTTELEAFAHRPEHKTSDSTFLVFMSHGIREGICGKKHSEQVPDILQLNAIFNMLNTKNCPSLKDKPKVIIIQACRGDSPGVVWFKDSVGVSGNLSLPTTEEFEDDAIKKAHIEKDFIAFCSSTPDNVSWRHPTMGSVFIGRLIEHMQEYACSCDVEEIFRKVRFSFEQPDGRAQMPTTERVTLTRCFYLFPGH
UniProt Q96P20: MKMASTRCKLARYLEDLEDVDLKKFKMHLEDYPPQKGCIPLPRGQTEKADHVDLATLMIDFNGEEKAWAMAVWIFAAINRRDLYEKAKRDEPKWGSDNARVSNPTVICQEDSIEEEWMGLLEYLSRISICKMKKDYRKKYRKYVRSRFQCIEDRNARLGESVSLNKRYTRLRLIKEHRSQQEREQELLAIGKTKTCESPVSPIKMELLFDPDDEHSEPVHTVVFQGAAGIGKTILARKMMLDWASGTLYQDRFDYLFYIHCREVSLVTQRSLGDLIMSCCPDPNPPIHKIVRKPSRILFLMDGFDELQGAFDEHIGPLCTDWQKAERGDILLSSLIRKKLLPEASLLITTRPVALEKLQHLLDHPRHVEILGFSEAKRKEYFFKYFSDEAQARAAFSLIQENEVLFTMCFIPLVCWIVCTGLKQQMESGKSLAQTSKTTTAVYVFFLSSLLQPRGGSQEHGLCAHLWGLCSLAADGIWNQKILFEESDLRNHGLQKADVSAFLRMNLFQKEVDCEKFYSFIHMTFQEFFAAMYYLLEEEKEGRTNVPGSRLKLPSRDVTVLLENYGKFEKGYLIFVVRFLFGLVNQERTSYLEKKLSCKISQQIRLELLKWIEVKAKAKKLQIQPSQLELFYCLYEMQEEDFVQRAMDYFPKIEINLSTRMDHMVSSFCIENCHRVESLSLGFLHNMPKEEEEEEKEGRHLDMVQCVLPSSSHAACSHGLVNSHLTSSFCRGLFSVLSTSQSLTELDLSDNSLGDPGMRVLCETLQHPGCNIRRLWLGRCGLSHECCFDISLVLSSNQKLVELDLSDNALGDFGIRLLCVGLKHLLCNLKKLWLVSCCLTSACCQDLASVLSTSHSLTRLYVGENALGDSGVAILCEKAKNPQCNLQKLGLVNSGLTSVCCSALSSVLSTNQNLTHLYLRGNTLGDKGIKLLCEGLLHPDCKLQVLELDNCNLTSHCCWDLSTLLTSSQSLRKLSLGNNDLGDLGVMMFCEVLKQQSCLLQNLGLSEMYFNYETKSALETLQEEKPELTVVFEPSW
UniProt P49023: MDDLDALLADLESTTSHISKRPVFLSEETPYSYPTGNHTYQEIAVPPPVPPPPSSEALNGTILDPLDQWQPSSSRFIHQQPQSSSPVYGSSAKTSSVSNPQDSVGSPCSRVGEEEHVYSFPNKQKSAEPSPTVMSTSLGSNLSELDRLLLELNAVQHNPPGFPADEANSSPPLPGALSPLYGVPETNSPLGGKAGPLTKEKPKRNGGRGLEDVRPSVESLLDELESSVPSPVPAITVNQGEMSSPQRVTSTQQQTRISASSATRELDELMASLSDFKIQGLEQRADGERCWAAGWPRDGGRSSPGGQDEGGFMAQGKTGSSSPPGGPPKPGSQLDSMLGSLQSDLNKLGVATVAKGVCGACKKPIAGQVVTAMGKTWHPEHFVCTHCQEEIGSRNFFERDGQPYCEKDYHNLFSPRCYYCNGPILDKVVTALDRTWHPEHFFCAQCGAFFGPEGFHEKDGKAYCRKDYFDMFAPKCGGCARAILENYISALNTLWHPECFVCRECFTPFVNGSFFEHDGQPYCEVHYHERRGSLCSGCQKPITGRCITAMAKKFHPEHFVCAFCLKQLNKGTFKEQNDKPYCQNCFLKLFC

Tests used:
Assay in all cases: co-IP; HEK293T cells co-transfected with Flag- and HA-tagged plasmids; lysis in 50 mM Tris-HCl pH 7.5, 300 mM NaCl, 1% Triton-X, 5 mM EDTA, 10% glycerol; IP with anti-Flag antibody and Protein-G Sepharose, immunoblot with anti-HA and anti-Flag; in some panels cells treated with DMSO or ATP (5 mM) for 2 h; Fig. 6d-g shown as pairs of IPs whose antibodies the legend does not name
[1] = target: Flag-Casp-1 (human) (UniProt P29466)
[2] = target: Flag-NLRP3 (human) (UniProt Q96P20)
[3] = target: T1, Flag-P2X7R(27–595) (UniProt Q99572)
T1 sequence: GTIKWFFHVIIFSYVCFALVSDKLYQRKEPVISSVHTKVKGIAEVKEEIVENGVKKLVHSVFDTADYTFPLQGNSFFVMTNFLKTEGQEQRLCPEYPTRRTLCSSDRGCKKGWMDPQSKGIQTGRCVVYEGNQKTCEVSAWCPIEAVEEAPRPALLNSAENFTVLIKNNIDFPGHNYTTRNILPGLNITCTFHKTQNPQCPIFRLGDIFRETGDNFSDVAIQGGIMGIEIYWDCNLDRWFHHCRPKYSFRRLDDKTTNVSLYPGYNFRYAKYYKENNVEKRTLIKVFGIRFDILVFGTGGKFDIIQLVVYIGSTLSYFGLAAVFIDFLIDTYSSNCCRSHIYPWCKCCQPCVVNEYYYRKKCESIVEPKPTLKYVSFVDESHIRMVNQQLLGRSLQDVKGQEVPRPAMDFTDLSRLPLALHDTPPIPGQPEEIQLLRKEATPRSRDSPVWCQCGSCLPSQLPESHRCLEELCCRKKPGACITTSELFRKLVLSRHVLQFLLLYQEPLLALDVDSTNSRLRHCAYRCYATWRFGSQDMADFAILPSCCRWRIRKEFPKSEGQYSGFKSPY

[4] = target: T2, Flag-P2X7R(335–595) (UniProt Q99572)
T2 sequence: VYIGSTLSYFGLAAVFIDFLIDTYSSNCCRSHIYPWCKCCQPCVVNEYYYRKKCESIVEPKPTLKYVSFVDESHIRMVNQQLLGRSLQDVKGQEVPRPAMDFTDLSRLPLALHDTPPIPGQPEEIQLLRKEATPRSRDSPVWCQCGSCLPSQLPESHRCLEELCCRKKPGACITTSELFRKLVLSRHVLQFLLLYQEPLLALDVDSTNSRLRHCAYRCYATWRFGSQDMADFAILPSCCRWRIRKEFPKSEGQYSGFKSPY

[5] = target: T3, Flag-USP13(301–863) (human) (UniProt Q92995)
T3 sequence: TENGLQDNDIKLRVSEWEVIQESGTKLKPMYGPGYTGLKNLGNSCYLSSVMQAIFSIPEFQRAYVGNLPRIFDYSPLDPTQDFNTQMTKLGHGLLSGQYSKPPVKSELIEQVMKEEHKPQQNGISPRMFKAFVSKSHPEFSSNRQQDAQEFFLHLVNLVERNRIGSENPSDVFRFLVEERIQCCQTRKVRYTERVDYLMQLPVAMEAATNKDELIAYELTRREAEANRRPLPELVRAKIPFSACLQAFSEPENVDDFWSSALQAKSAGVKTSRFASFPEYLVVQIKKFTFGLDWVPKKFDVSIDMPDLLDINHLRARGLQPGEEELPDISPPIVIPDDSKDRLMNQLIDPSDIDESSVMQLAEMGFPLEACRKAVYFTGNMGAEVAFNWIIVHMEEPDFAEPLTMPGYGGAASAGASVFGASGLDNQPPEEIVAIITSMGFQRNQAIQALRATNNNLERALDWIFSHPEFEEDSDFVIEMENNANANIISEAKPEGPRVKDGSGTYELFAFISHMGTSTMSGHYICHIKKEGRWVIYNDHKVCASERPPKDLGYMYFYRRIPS

With HA-Paxillin (from UniProt P49023 1-591) the binding [1] was “no binding”, the binding [2] was “binds” and the binding [3] was “binds”. The binding [4] was “no binding” and the binding [5] was “no binding”.
